The supplement of paper PMC8183993
“And” between values parts separate entries of the source, which are not always exact repeats. Equal values may be shown once. Where a name gives a salt, the structure may show the parent alone. ± gives the standard deviation of the averaged measurements. The full ranking holds about 3,200 compounds; the median of “nuclei count (viability) relative to DMSO” is about 99, and the lowest 2% start at about 16. Some of the results follow.

What follows are molecules tested on U2OS (assay: nuclei count (viability) relative to DMSO (% of DMSO); higher = more viable cells). Settings: 10 µM; 24 h.
Procedure: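 Primary image-based screen in U2OS cells: compounds at 10 uM for 24 h, then a 1 h o-propargyl-puromycin (OPP) pulse, click labelling, and high-throughput microscopy. Mean cytoplasmic OPP intensity and nuclei count were normalised to DMSO wells within each plate (DMSO = 100) and averaged over triplicate plates.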

SMILES | nuclei count
COc1ccc([C@]2(C#N)CC[C@@H](C(=O)O)CC2)cc1OC1CCCC1 | 106
CC(NCCC(c1ccccc1)c1ccccc1)c1ccccc1 (centres undefined) [Fendiline hydrochloride] | 91.2
Cc1cc2c(F)c(Oc3ncnn4cc(OC[C@@H](C)OC(=O)[C@H](C)N)c(C)c34)ccc2[nH]1 | 98.77 ± 0.34
O=c1[nH]c(=O)n(C2CCCO2)cc1F (centres undefined) [Ftorafur] | 108
CCOC(=O)Nc1cc(-c2ccc(C)c(NS(C)(=O)=O)c2)nn2c(C)nnc12 [Bromosporine] | 74.5
Cc1c(N(C)CS(=O)(=O)O)c(=O)n(-c2ccccc2)n1C [Dipyrone] | 102
C[C@@H]1CCN(C(=O)CC#N)C[C@@H]1N(C)c1ncnc2[nH]ccc12 | 105 and 103
COc1cc2c(cc1C(F)(F)F)N(C(=O)Nc1cc(F)cc(-c3cccnc3)c1)CC2 | 91.9
CCC(C)N(C)C(=O)c1cc2ccccc2c(-c2ccccc2Cl)n1 (centres undefined) | 106
Nc1nc2ccc(Cl)cc2c2nc(-c3ccco3)nn12 | 95.4
Nc1cc(C(Cl)=C(Cl)Cl)c(S(N)(=O)=O)cc1S(N)(=O)=O [Clorsulon] | 103
CC[C@H](C)C(=O)O[C@H]1CCC=C2C=C[C@H](C)[C@H](CC[C@@H]3C[C@@H](O)CC(=O)O3)[C@H]21 [Mevastatin] | 102 ± 3.2
Cc1ccc2c(c1)C(=O)C1(O)CCN(c3ccccc3)C1=N2 (centres undefined) [(?)-Blebbistatin] | 96.3
COc1c2occc2c(OC)c2c(=O)cc(C)oc12 [Khellin] | 87.4
NNc1nncc2ccccc12 [Hydralazine HCl] | 98.2
NNc1nncc2ccccc12 [Hydralazine hydrochloride] | 106
CC(=O)OCC(CCn1cnc2cnc(N)nc21)COC(C)=O [Famciclovir] | 118
COc1ccc([C@@H]2CC(=O)c3c(O)cc(O[C@@H]4O[C@H](CO)[C@@H](O)[C@H](O)[C@H]4O[C@@H]4O[C@@H](C)[C@H](O)[C@@H](O)[C@H]4O)cc3O2)cc1O [Neohesperidin] | 98.6
O=C(/C=C/c1ccc(O)c(O)c1)OCCc1ccccc1 [Caffeic acid phenethyl ester] | 96.6
C=CC(=O)Nc1cccc(Oc2nc(Nc3ccc(N4CCN(C)CC4)cc3OC)ncc2Cl)c1 | 107
CN1CCN(c2c(F)cc3c(=O)c(C(=O)O)cn(CCF)c3c2F)CC1 [Fleroxacin] | 98
C[N+](C)(C)CC[N+]1(C)Cc2c(Cl)c(Cl)c(Cl)c(Cl)c2C1 [Chlorisondamine diiodide] | 90.8
C[C@H](CCC(=O)O)[C@H]1CC[C@H]2[C@@H]3[C@H](O)C[C@@H]4C[C@H](O)CC[C@]4(C)[C@H]3CC[C@]12C [Chenodeoxycholic acid] | 101 ± 2.2
C[C@H](CCC(=O)O)[C@H]1CC[C@H]2[C@@H]3[C@H](O)C[C@@H]4C[C@H](O)CC[C@]4(C)[C@H]3CC[C@]12C [Chenodiol] | 109
